In the supplement of paper PMC8728848:
The other results are listed elsewhere or left out.

Experiments:
Assay in all cases: glycan array binding signal (z-score within array); higher = stronger binding
Conditions in all cases: glycan notation: IUPAC condensed, linker removed
[1] = molecular target: Gal(a1-4)Gal(b1-4)Glc
In short: (§1)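 The Consortium for Functional Glycomics database supplied 3228 glycan arrays, of which those lacking an available protein sequence were dropped. The binding signal, a within-array Z-score, was averaged across arrays of the same protein sequence and across linkers. Negative scores can be read as non-binding.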

[2] = molecular target: Gal(a1-4)Gal(b1-4)GlcNAc
In short: as §1

[3] = molecular target: Gal(a1-4)GlcNAc
In short: as §1

[4] = molecular target: Gal(a1-6)Glc
In short: as §1

[5] = molecular target: Gal(b1-2)Gal
In short: as §1

[6] = molecular target: Gal(b1-3)Gal
In short: as §1

[7] = molecular target: Gal(b1-3)GalNAc
In short: as §1

[8] = molecular target: Gal(b1-3)GalNAc(b1-3)Gal(a1-4)Gal(b1-4)Glc
In short: as §1

[9] = molecular target: Gal(b1-3)GalNAc(b1-4)Gal(b1-4)Glc
In short: as §1

[10] = molecular target: Gal(b1-3)GalNAc(b1-4)[Neu5Ac(a2-3)]Gal(b1-4)Glc
In short: as §1

[11] = molecular target: Gal(b1-3)GlcNAc
In short: as §1

[12] = molecular target: Gal(b1-3)GlcNAc(b1-3)Gal(b1-4)Glc
In short: as §1

[13] = molecular target: Gal(b1-3)GlcNAc(b1-3)Gal(b1-4)GlcNAc
In short: as §1

[14] = molecular target: Gal(b1-3)[Fuc(a1-4)]GlcNAc
In short: as §1

[15] = molecular target: Gal(b1-3)[Fuc(a1-4)]GlcNAc(b1-3)Gal(b1-4)GlcNAc
In short: as §1

[16] = molecular target: Gal(b1-3)[Fuc(a1-4)]GlcNAc(b1-3)Gal(b1-4)[Fuc(a1-3)]GlcNAc
In short: as §1

[17] = molecular target: Gal(b1-3)[GlcNAc(b1-6)]GalNAc
In short: as §1

[18] = molecular target: Gal(b1-3)[Neu5Ac(a2-6)]GalNAc
In short: as §1

[19] = molecular target: Gal(b1-3)[Neu5Ac(a2-6)]GlcNAc(b1-6)Gal(b1-4)Glc
In short: as §1

[20] = molecular target: Gal(b1-3)[Neu5Ac(b2-6)]GalNAc
In short: as §1

[21] = molecular target: Gal(b1-4)GalNAc(a1-3)[Fuc(a1-2)]Gal(b1-4)GlcNAc
In short: as §1

[22] = molecular target: Gal(b1-4)GalNAc(b1-3)[Fuc(a1-2)]Gal(b1-4)GlcNAc
In short: as §1

[23] = molecular target: Gal(b1-4)Glc
In short: as §1

[24] = molecular target: Gal(b1-4)Glc6S
In short: as §1

[25] = molecular target: Gal(b1-4)GlcNAc
In short: as §1

[26] = molecular target: Gal(b1-4)GlcNAc(b1-2)Man(a1-3)[Gal(b1-4)GlcNAc(b1-2)Man(a1-6)]Man(b1-4)GlcNAc(b1-4)GlcNAc
In short: as §1

[27] = molecular target: Gal(b1-4)GlcNAc(b1-3)Gal(b1-4)Glc
In short: as §1

[28] = molecular target: Gal(b1-4)GlcNAc(b1-3)Gal(b1-4)GlcNAc
In short: as §1

[29] = molecular target: Gal(b1-4)GlcNAc(b1-3)Gal(b1-4)GlcNAc(b1-3)Gal(b1-4)GlcNAc
In short: as §1

[30] = molecular target: Gal(b1-4)GlcNAc(b1-3)Gal(b1-4)[Fuc(a1-3)]GlcNAc(b1-3)Gal(b1-4)[Fuc(a1-3)]GlcNAc
In short: as §1

[31] = molecular target: Gal(b1-4)GlcNAc(b1-3)GalNAc
In short: as §1

[32] = molecular target: Gal(b1-4)GlcNAc(b1-3)[Gal(b1-4)GlcNAc(b1-6)]GalNAc
In short: as §1

[33] = molecular target: Gal(b1-4)GlcNAc(b1-6)Gal(b1-4)GlcNAc(b1-6)GalNAc
In short: as §1

[34] = molecular target: Gal(b1-4)GlcNAc(b1-6)GalNAc
In short: as §1

[35] = molecular target: Gal(b1-4)GlcNAc(b1-6)[Gal(b1-3)]GalNAc
In short: as §1

[36] = molecular target: Gal3S(b1-3)GalNAc
In short: as §1

[37] = molecular target: Gal3S(b1-3)GlcNAc
In short: as §1

[38] = molecular target: Gal3S(b1-3)[Fuc(a1-4)]GlcNAc
In short: as §1

[39] = molecular target: Gal3S(b1-4)Glc
In short: as §1

[40] = molecular target: Gal3S(b1-4)Glc6S
In short: as §1

[41] = molecular target: Gal3S(b1-4)GlcNAc
In short: as §1

[42] = molecular target: Gal3S(b1-4)GlcNAc6S
In short: as §1

[43] = molecular target: Gal3S6S(b1-4)GlcNAc
In short: as §1

[44] = molecular target: Gal3S6S(b1-4)GlcNAc6S
In short: as §1

[45] = molecular target: Gal4S(b1-4)GlcNAc
In short: as §1

B1: CV-IIL (Chromobacterium violaceum) (protein)
chain: AQQGVFTLPARINFGVTVLVNSAATQHVEIFVDNEPRAAFSGVGTGDNNLGTKVINSGSGNVRVQITANGRQSDLVSSQLVLANKLNLAVVGSEDGTDMDYNDSIVILNWPLG
glycan array binding signal (z-score) [1]: -0.499 | glycan array binding signal (z-score) [2]: -0.498 | glycan array binding signal (z-score) [3]: -0.501 | glycan array binding signal (z-score) [4]: -0.498 | glycan array binding signal (z-score) [5]: -0.5 | glycan array binding signal (z-score) [6]: -0.5 | glycan array binding signal (z-score) [7]: -0.5 | glycan array binding signal (z-score) [8]: -0.501 | glycan array binding signal (z-score) [9]: -0.501 | glycan array binding signal (z-score) [10]: -0.472 | glycan array binding signal (z-score) [11]: -0.501 | glycan array binding signal (z-score) [12]: -0.383 | glycan array binding signal (z-score) [13]: -0.499 | glycan array binding signal (z-score) [14]: 2.27 | glycan array binding signal (z-score) [15]: 0.055 | glycan array binding signal (z-score) [16]: 1.75 | glycan array binding signal (z-score) [17]: -0.501 | glycan array binding signal (z-score) [18]: -0.496 | glycan array binding signal (z-score) [19]: -0.498 | glycan array binding signal (z-score) [20]: -0.502 | glycan array binding signal (z-score) [21]: -0.427 | glycan array binding signal (z-score) [22]: -0.46 | glycan array binding signal (z-score) [23]: -0.498 | glycan array binding signal (z-score) [24]: -0.5 | glycan array binding signal (z-score) [25]: -0.501 | glycan array binding signal (z-score) [26]: -0.477 | glycan array binding signal (z-score) [27]: -0.467 | glycan array binding signal (z-score) [28]: -0.502 | glycan array binding signal (z-score) [29]: -0.479 | glycan array binding signal (z-score) [30]: -0.136 | glycan array binding signal (z-score) [31]: -0.502 | glycan array binding signal (z-score) [32]: -0.502 | glycan array binding signal (z-score) [33]: -0.502 | glycan array binding signal (z-score) [34]: -0.501 | glycan array binding signal (z-score) [35]: -0.502 | glycan array binding signal (z-score) [36]: -0.502 | glycan array binding signal (z-score) [37]: -0.5 | glycan array binding signal (z-score) [38]: 2.18 | glycan array binding signal (z-score) [39]: -0.495 | glycan array binding signal (z-score) [40]: -0.5 | glycan array binding signal (z-score) [41]: -0.501 | glycan array binding signal (z-score) [42]: -0.499 | glycan array binding signal (z-score) [43]: -0.491 | glycan array binding signal (z-score) [44]: -0.501 | glycan array binding signal (z-score) [45]: -0.501
